# Experimental data taken from PubChem BioAssay AID624202 (National Center for Advancing Translational Sciences (NCATS), 2012).
# In all, about 380,000 compounds went through this assay and about 4,000 (1.1%) were called active. This list was built around the results that the source calls inconclusive (neither active nor inactive); the mix of calls is not that of the screen. The call rests on the fitted dose curve; in most records, active means well fitted activation curve with a large enough effect; inconclusive means small, poorly fitted or top-dose-only effect; inactive means no such curve, though single readings can be large or run the other way. Potencies of inconclusive entries are doubtful fits and often do not repeat.
# Experiment: qHTS Assay to Identify Small Molecule Activators of BRCA1 Expression; further: nearly all actives have a fitted effect of over 80% in size
# Settings: MCF7-BRCA1-FFLuc reporter, luminescence, 48 h; activation: at 46.1 µM (top of the series), scaled: vehicle 0%, 10 µM genistein 100% unless noted
# In short: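 First, MCF7-BRCA1-FFLuc cells (2000/well) attach for 2 h; next, compounds are pin-added and incubated 48 h at 37 °C; finally, luciferase reagent is added and luminescence read after 15 min.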
# Potency means the concentration at half of the fitted maximal effect; tags describe the fitted curve by direction and shape.
SMILES,Potency,activation
COc1ccc(NC(=O)CCCc2ccccc2)cc1OC,active: 11.2 µM,
COc1ccc(-c2nnc(SC(C(=O)c3c[nH]c4ccccc34)c3ccccc3)n2N)cc1OC (centres undefined),inactive,
O=C(Nc1ccc2c(c1)oc1ccccc12)c1ccc(Br)o1,"inconclusive: 1.78 µM [activator, full curve, poor fit]",
Cc1cc(C)c2c(N)c(C(=O)N3CCN(c4ncccn4)CC3)sc2n1,"inconclusive: 35.5 µM [activator, single point]",
Cc1ccc(C2Nc3ccccc3-c3nc4ccccc4n32)o1 (centres undefined),"inconclusive: 3.16 µM [activator, full curve, poor fit]",
Cn1cc(C(=O)Nc2ccc3c(c2)CCC3)cn1,"inconclusive: 11.2 µM [activator, partial curve, poor fit]",
Cc1cc(O)c(C(=O)Cc2csc(C)n2)c(O)c1,"inconclusive: 15.8 µM [activator, single point]",
C=CCNc1cnn(-c2ccccc2)c(=O)c1Cl,"inconclusive: 4.47 µM [activator, partial curve, poor fit]",
O=c1cc(COc2ccc(Cl)c(Cl)c2)nc2sccn12,"inconclusive: 17.8 µM [activator, partial curve, poor fit]",
CC(C)c1nc(SCC(=O)N2CCc3ccccc32)n[nH]1,"inconclusive: 11.2 µM [activator, partial curve, poor fit]",
O=c1c(-c2ccccc2)n[nH]c2ccccc12,"inconclusive: 31.6 µM [activator, single point]",
CCN(CC)c1ncnc2c1ncn2[C@H]1CN(Cc2ccco2)C[C@@H](CO)O1,inactive,
OCCc1c[nH]c2ccccc12,"inconclusive: 0.316 µM [activator, full curve, poor fit]",
O=C(c1cccs1)N(C(=O)c1cccs1)c1ccc(Br)cn1,"inconclusive: 1.58 µM [activator, partial curve, poor fit]",
Cn1c(SCC(=O)NC2CCCCC2)nnc1-c1cc2ccccc2o1,"inconclusive: 22.4 µM [activator, single point]",
O=C(Nc1ccc(OC(F)(F)F)cc1)Nc1cccnc1,"inconclusive: 7.94 µM [activator, partial curve, poor fit]",
Nc1nc(-c2ccc(-c3ccccc3)cc2)cs1,"inconclusive: 0.631 µM [activator, full curve, poor fit]",
Cn1cccc1C(=O)NNC(=O)COc1ccccc1F,active: 12.6 µM,
Brc1ccc(COc2cccc3cccnc23)cc1,"inconclusive: 14.1 µM [activator, partial curve, poor fit]",
N#Cc1ccccc1CSc1nc2ccc(NC(=O)c3ccccc3C(=O)O)cc2s1,"inconclusive: 12.6 µM [activator, partial curve, poor fit]",
CCOc1ccc2nc(SCC(=O)c3ccccc3)sc2c1,"inconclusive: 31.6 µM [activator, single point]",
COc1ccc(S(=O)(=O)N2CCCN(CC(=O)Nc3ccc(OC)c(Cl)c3)CC2)cc1,inactive,

SMILES,Potency,activation
COc1ccc(N2CCN(C(=O)c3ccc(Cn4c(=S)[nH]c5ccc(N6CCOCC6)cc5c4=O)cc3)CC2)cc1,"inconclusive: 2.24 µM [activator, full curve, poor fit]",
N#C/C(=C(/O)c1ccco1)c1nc2ccccc2[nH]1,inactive,
Clc1ccccc1OCCn1nnc2ccccc21,active: 11.2 µM,
O=c1c(-c2ccc(O)cc2)coc2cc(OC3OC(CO)C(O)C(O)C3O)cc(O)c12 (centres undefined),active: 8.91 µM,
Cc1csc(SCc2nnc(-c3ccccc3Br)o2)n1,"inconclusive: 1 µM [activator, full curve, poor fit]",
Cc1nn2c(N)c(-c3ccccc3)cnc2c1-c1ccccc1,"inconclusive: 1.58 µM [activator, full curve, poor fit]",
Cc1cc(NCc2ccccc2)n2ncc(-c3ccccc3)c2n1,"inconclusive: 2.51 µM [activator, partial curve, poor fit]",
Cc1ccc(NC(=O)Nc2ccc(S(N)(=O)=O)cc2)cc1,"inconclusive: 25.1 µM [activator, single point]",
CCOC(=O)c1c(NC(=O)c2ccc(S(=O)(=O)N(CC(C)C)CC(C)C)cc2)sc2c1CCN(C(=O)OCC)C2,inactive,
CC1=Nc2ccccc2/C1=C/c1sc(=S)n(-c2cccc(C(=O)O)c2)c1O,inactive,
CC(C)OCCCNC1=C(Cl)C(=O)c2ccccc2C1=O,"inconclusive: 3.55 µM [activator, full curve, poor fit]",
Cc1cccc(C(=O)NCCc2ccccc2)c1,"inconclusive: 1.58 µM [activator, partial curve, poor fit]",
COc1ccc(OC)c(-n2c(=S)[nH]c3cc(C(=O)N4CCN(c5ccccc5)CC4)ccc3c2=O)c1,inactive,
CCn1cc([N+](=O)[O-])c(C(=O)Nc2ccc3c(c2)OCCO3)n1,active: 5.01 µM,
CCOC(=O)CCNC(=O)c1ccc2nc(C3CCCCC3)oc2c1,"inconclusive: 11.2 µM [activator, partial curve, poor fit]",
CN(C)c1ccc(N2CN=C3SCC(=O)N3C2)cc1,"inconclusive: 35.5 µM [activator, single point]",
CN(C)CCNC(=O)c1cccc2nc3cccc(F)c3nc12,inactive,
O=C(O)c1ccc(Nc2nc3c(s2)CCCC3)cc1,,inconclusive: -87.5% [activator]
CC(C)CN1CCC(=O)N(CCOc2ccccc2)CC1,"inconclusive: 11.2 µM [activator, partial curve, poor fit]",
Cc1ccc(/C=N/Nc2cccc(C(=O)O)c2)s1,,inconclusive: -61.5% [activator]
O=C(CC(Nc1ccc(Cl)cc1)C(=O)O)c1ccccc1 (centres undefined),"inconclusive: 2.51 µM [activator, partial curve, poor fit]",
COc1ccc(NC(=O)c2ccc3c(c2)OCO3)cc1Cl,"inconclusive: 1.26 µM [activator, partial curve, poor fit]",
